Measurements taken from publication PMC4336329 (PLoS ONE, 2015).
The whole screen tested about 310,000 compounds, of which about 14,000 (4.5%) showed an effect of 50% or more. The effect is printed as a negative number. This is one part of the list.

target: human ether-à-go-go-related gene (hERG) potassium channel (human, UniProt Q12809); assay: primary screen, population patch clamp on CHO cells stably expressing hERG
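Also: peak tail current of the secondary pulse compared with the same well before compound.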

human ether-à-go-go-related gene (hERG) potassium channel, sequence (Q12809 whole entry, looked up): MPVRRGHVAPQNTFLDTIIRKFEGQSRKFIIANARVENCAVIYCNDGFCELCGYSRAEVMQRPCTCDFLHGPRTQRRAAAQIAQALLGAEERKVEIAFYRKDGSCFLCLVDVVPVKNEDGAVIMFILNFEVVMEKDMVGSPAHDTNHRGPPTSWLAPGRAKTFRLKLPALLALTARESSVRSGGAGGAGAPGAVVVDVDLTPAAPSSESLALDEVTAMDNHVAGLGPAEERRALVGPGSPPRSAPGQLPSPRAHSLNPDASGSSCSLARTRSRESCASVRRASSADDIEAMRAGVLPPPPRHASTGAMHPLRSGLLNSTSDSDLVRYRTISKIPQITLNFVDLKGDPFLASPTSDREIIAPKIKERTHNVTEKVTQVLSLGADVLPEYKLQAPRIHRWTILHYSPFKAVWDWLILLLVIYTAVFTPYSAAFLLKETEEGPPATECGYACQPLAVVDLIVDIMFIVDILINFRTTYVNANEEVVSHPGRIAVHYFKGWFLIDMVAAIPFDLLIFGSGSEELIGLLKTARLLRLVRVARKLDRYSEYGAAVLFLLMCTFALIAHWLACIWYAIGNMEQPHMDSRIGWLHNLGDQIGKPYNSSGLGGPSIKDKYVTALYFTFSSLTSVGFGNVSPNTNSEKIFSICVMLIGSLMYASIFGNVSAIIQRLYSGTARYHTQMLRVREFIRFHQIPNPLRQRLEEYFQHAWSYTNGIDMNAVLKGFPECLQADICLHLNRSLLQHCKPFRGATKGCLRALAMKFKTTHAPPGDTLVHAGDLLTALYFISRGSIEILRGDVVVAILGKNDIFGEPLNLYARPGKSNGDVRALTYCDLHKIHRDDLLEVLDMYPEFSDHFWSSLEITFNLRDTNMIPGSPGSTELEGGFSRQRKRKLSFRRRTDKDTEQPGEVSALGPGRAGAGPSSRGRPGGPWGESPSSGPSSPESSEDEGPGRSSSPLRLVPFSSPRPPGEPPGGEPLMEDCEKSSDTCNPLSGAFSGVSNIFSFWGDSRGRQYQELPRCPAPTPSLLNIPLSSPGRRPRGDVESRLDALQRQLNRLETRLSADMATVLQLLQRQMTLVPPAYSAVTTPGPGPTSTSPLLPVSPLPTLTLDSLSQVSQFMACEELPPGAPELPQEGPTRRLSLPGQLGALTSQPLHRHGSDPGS

SMILES	hERG current change (%, negative = inhibition) at 10uM
CCc1ccc(/C=C/C(=O)C2C(=O)c3ccccc3C2=O)cc1	6.34%
CCS(=O)(=O)C(=C1Nc2ccccc2N1)S(=O)(=O)CC	15.1%
CNC(=O)Nc1ccc2snnc2c1	17.6%
Cc1ccc(S(=O)(=O)NC(Cc2ccccc2)C(=O)O)cc1C (stereo not shown)	19.6%
Clc1ccc(-c2noc(CSc3nnc(Cc4cccs4)n3-c3ccccc3)n2)cc1	5.37%
COCC(=O)Nc1c(C(=O)N2CCCC2)oc2ccccc12	1.46%
C/C(=N\N=C1\NC(=O)CC(C(=O)O)S1)c1ccc(F)cc1 (stereo not shown)	0.193%
CCc1ccc(C(=O)c2cc3ccc(O)cc3oc2=O)cc1	-0.0727%
CCOC(=O)c1cc2sc(C)cc2n1CC(=O)NCCc1ccccc1	7.12%
CCOC(=O)c1c(S(=O)(=O)N(C)Cc2ccccc2)c(C)n(C)c1C	-6.14%
CN(C)CCCN(C(=O)c1ccc(S(=O)(=O)N2CCOCC2)cc1)c1nc2ccc(F)cc2s1.Cl	-58.7%
O=C(Cc1ccc(S(=O)(=O)N2CCCC2)s1)N1CCN(c2ccccc2)CC1	-28.4%
CCc1cccc2c(C(=O)CSc3nnc(-c4ccoc4C)n3C)c[nH]c12	-4.21%
O=C(O)c1ccc(S(=O)(=O)c2ccc3c(c2)C(=O)N(NC(=O)c2ccncc2)C3=O)cc1	3.42%
CC(C)(C)n1nnnc1C(c1cccc(C(F)(F)F)c1)N1CCC(O)CC1 (stereo not shown)	-12.5%
CCOC(=O)Nc1cccc(Cl)c1C	2.28%
CC1(c2ccc(OC(F)F)cc2)NC(=O)N(CC(=O)c2ccc3c(c2)OCO3)C1=O (stereo not shown)	-44.1%
CCO[C@H]1OC(C(=O)Nc2ccccc2)=C[C@@H](c2csc3ccccc23)[C@@H]1CCCO	-9.47%
COc1ccccc1N1CCN(C(=O)C(C)CS(=O)(=O)c2ccc3c(c2)NC(=O)CS3)CC1 (stereo not shown)	4.07%
CC(=O)Nc1ccc(NC(=O)C(C)OC(=O)C2CCCC2)cc1 (stereo not shown)	14.9%
NC(=O)c1cc2cc(Cl)ccc2oc1=O	11.8%
Cl.c1ccc(CSCc2cn3ccccc3n2)cc1	2.98%

SMILES	hERG current change (%, negative = inhibition) at 10uM
O=C(C[n+]1cc(Br)cc2ccccc21)c1ccc(F)cc1.[Br-]	-41.6%
COc1ccc(C2C(C(=O)c3ccco3)=C(O)C(=O)N2Cc2cccnc2)cc1OC (stereo not shown)	8.4%
Cc1ccc(C2C(C#N)=C(N)N(c3cccnc3)C3=C2C(=O)CCC3)s1 (stereo not shown)	-0.707%
O=C(COC(=O)C1CC(O)CN1C(=O)Oc1ccccc1)c1ccc(Br)cc1 (stereo not shown)	-20.8%
Cc1cccc(NC(=S)NCc2ccc3c(c2)OCO3)c1	-9.62%
O=C(Nc1ccc(Cl)cc1C(=O)N1CCCCC1)c1ccco1	10.9%
COC(C[C@@H](O)C[C@@H](O)[C@@H](C)OCc1ccccc1)OC	12.5%
Cc1ccccc1NC(=O)c1ccccc1NS(=O)(=O)c1cccc2cccnc12	0.178%
O=C(CSc1nnc(-c2ccc(F)cc2)n1CC1CCCO1)NCc1ccco1 (stereo not shown)	13.2%
NC(=O)NC(CC(=O)NCCCc1ccccc1)c1ccc(Cl)cc1 (stereo not shown)	15.3%
O=C(CSc1nnc(-c2ccccc2Cl)o1)Oc1ccc(Br)cc1	38.5%
O=C(/C=C/c1cccnc1)c1cccc(O)c1	5.9%
O=C(Nc1nc2c(s1)CCCC2)c1cccnc1	2.81%
CCC(=O)Nc1ccc(Oc2ccc(NC(=O)CC)c(NC(=O)CC)c2)cc1	2.52%
COc1ccc(-c2nnc(SCC(N)=O)n2N)cc1	6.29%
CCc1cc(C(=O)N2CCN(c3ncc(C(F)(F)F)cc3Cl)CC2)sc1C	-3.1%
Cc1ccc(OCC(=O)NNC(=O)Cn2c(=O)cnc3ccccc32)cc1	-3.16%
CCC(=NCc1cc(OC)cc(OC)c1)c1c(O)n(C2CCCCC2)c(=O)[nH]c1=O	15.3%
O=C(/C=C/c1ccco1)NC(=S)Nc1ccc(C(=O)O)cc1	22.1%
CC(C)CC(c1nnnn1Cc1cccs1)N1CCN(c2nc3ccccc3s2)CC1 (stereo not shown)	0.473%
CNS(=O)(=O)c1cc(Cl)ccc1Sc1ccccc1C(=O)O	14.3%
